Measured values taken from the RNAGym collection of RNA variant scans (doi:10.1093/nar/gkz1192).
The source gives no read counts; variants with many changes may rest on few reads.

B1: CPEB3 Ribozyme (parent)
chain: UAACAGGGGGCCACAGCAGAAGCGUUCACGUCGCAGCCCCUGUCAGAUUCUGGUGAAUCUGCGAAUUCUGCUGUAUAUCUC

Variants of: B1
Experiment: self-cleavage, relative activity (ratio to wild type); higher = more cleavage; in vitro, sequencing
In short: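 After error-prone PCR and barcoding, CPEB3 ribozyme mutant libraries were transcribed with T7 RNA polymerase at 37°C for 5 hours, then given 15 min with DNase I before an EDTA stop, and they cleaved during both steps. Reverse transcription with template switching preceded Illumina sequencing. Relative activity divides a variant's cleaved/total read fraction by the unmutated ribozyme's. At least 5 reads were required per variant, and three batches were averaged.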

| Variant | self-cleavage |
| --- | --- |
| U26C C32A U51C A65U U72C U76C | 0.11 |
| U26C G70U U78A | 0.16 |
| U26C U31A C32G | 0.29 |
| U26C A64G U72A | 0.21 |
| U26C A47G C50A U66C | 0.2 |
| U26C C44A U51A A56C U67C A77U U78A | 0.07 |
| U26C G42A U72A A77G U78C | 0.33 |
| U26C A56G U72A U74C | 0.52 |
| U26C C68G U69C | 0.15 |
| U26C C50A G63A | 0.24 |
| U26C G30U U31C C32U | 0.1 |
| U26C C40A G53A A56G U58C | 0.05 |
| U26C C27U A47U U49C U54C U60C | 0.04 |
| U26C U31C U41A A47G G53A U72A C81U | 0.06 |
| U26C A47G A77U | 0.31 |
| U26C C38G C59A C68U U80C | 0.17 |
| U26C A57G C81U | 0.33 |
| U26C A65G U67C | 0.29 |
| U26C A47U U60C C62A C71U | 0.05 |
| U26C A64G U78C | 0.27 |
| U26C C27G U78C | 0.29 |
| U26C C50U A64G | 0.16 |
| U26C C29A U58A U78A | 0.18 |
| U26C A47G A56G U60A A65G | 0.07 |

| Variant | self-cleavage |
| --- | --- |
| U26C U31C G52A | 0.19 |
| U26C C38G U41C A56G U76C | 0.04 |
| U26C U31C A57G U69A | 0.13 |
| U26C C37U A64U U78C | 0.09 |
| U26C A47G U49A | 0.46 |
| U26C G33U U49A U66C G73A | 0.16 |
| U26C C34A C62A | 0.11 |
| U26C C34U U48C U49C A64U | 0.08 |
| U26C A57G U78A | 0.43 |
| U26C U31C C37U G46U U67A A75G | 0.1 |
| U26C C29U A57G A64G | 0.12 |
| U26C C40G U48C A65G A75G U80C | 0.05 |
| U26C U31C U41C U72A | 0.29 |
| U26C C38A U41C A47G U48C U69C U80C | 0.2 |
| U26C C32A C68U | 0.18 |
| U26C C29A U58A U74C U80C | 0.21 |
| U26C C29A U41A | 0.23 |
| U26C A47G U66C U78A | 0.05 |
| U26C A75U U80C | 0.42 |
| U26C G53U A65G | 0.14 |
| U26C C32U A47G | 0.24 |
| U26C A56G A64G | 0.18 |
| U26C C27U U60C | 0.17 |
| U26C C39U A64G | 0.22 |

| Variant | self-cleavage |
| --- | --- |
| U26C U31A U43C U48C | 0.1 |
| U26C C37U U72A | 0.13 |
| U26C C38A A45G U54A U72C | 0.18 |
| U26C C38A A56G | 0.13 |
| U26C A56U A57G | 0.17 |
| U26C G53U U66A | 0.23 |
| U26C G36C G55A | 0.08 |
| U26C A64G U69A U74A | 0.14 |
| U26C A77G U80C | 0.42 |
| U26C A47G A56G | 0.33 |
| U26C U31C U43G | 0.31 |
| U26C C39U U41A U49C A56C | 0.3 |
| U26C C32U G55A A65G | 0.07 |
| U26C A64G U66C | 0.23 |
| U26C G52A A65G U66A U76A U78C | 0.05 |
| U26C G53A U58G U69A U72A | 0.08 |
| U26C U31C U48C U72A | 0.12 |
| U26C C37A A64U U72A | 0.08 |
| U26C U31A A57G U67C | 0.09 |
| U26C G33A U72G U78C | 0.12 |
| U26C U31C A75G | 0.31 |
| U26C A56C C62A U80C | 0.15 |
| U26C A56U A64U | 0.16 |
| U26C C27A G33A A45G C62A | 0.07 |

| Variant | self-cleavage |
| --- | --- |
| U26C C37U U48A A56U U66C | 0.05 |
| U26C C27A U69A U72C | 0.27 |
| U26C C29G A35C C39U | 0.19 |
| U26C C44G C59G | 0.13 |
| U26C C38A U80C | 0.27 |
| U26C U31C U41C G46U U66C | 0.16 |
| U26C G33C A75G | 0.08 |
| U26C A56U U58G | 0.08 |
| U26C U31C A57U U69A | 0.16 |
| U26C G46A A57G | 0.07 |
| U26C A64G C71U A75G A77G | 0.08 |
| U26C C29G U48C A64C C68A | 0.07 |
| U26C G61A U69C | 0.16 |
| U26C G33U U41C G53C U69A U72C | 0.06 |
| U26C C32U C59A U74A | 0.19 |
| U26C C39G U49C | 0.2 |
| U26C C38A U69A | 0.15 |
| U26C A57G U58C | 0.16 |
| U26C U31A U41C U51A C81U | 0.2 |
| U26C G53A A57G | 0.57 |
| U26C A47G U54C U60A U72A | 0.09 |
| U26C U31A A64U | 0.12 |
| U26C A57G U67C U69A | 0.07 |
| U26C G70C U76A | 0.12 |

| Variant | self-cleavage |
| --- | --- |
| U26C C50A A57G | 0.21 |
| U26C C50A A57U | 0.2 |
| U26C U31C G36A C50U U54C | 0.06 |
| U26C A65C U72C | 0.12 |
| U26C C32A G63U | 0.1 |
| U26C G36A U51C | 0.15 |
| U26C A64G G70U U72A | 0.12 |
| U26C A57G U60A A65G C68U | 0.12 |
| U26C A47G U49C U74A | 0.15 |
| U26C A65C U69G | 0.11 |
| U26C A56C A77G | 0.21 |
| U26C G36A A57G U67C | 0.11 |
| U26C G42C A77C | 0.11 |
| U26C C38U U72C U74C U78A | 0.32 |
| U26C C34U U66C U80C | 0.14 |
| U26C G46A U69C U72A | 0.17 |
| U26C A56U G73A | 0.55 |
| U26C C38A U41C U60C | 0.27 |
| U26C G42A U54G | 0.08 |
| U26C C40U A45U G63C | 0.1 |
| U26C U31A C68A | 0.14 |
| U26C C29U A35U A56G U60C | 0.11 |
| U26C G33A U48C | 0.18 |
| U26C A47G C62A | 0.47 |

| Variant | self-cleavage |
| --- | --- |
| U26C C27U A47G A57G U60C | 0.14 |
| U26C G46A U58A A64G A77U | 0.08 |
| U26C U31C U48C | 0.29 |
| U26C C50A A56G | 0.15 |
| U26C C40A A45C U76C | 0.06 |
| U26C G52C A64G | 0.09 |
| U26C G52A A65G U78C | 0.13 |
| U26C C32U C37U U48A U67C | 0.09 |
| U26C U31C A35G A45U A57G A65G A75G | 0.05 |
| U26C U31A A35G A57G G61A | 0.21 |
| U26C C34A U41C A47G U51A A65G U76C | 0.08 |
| U26C A57U A64U | 0.15 |
| U26C G33A A57U | 0.38 |
| U26C A47G U58A U60G U76C A77U | 0.07 |
| U26C A57U U67A | 0.34 |
| U26C A57G U69C A75G | 0.1 |
| U26C A47U A64U U78A | 0.21 |
| U26C C32U U41A U51C | 0.1 |
| U26C G33C U76A A77U | 0.19 |
| U26C U31A A45U | 0.16 |
| U26C C29U A35G U41C U60C | 0.1 |
| U26C C29G A45G | 0.19 |
| U26C C29G U31C A35G U49C | 0.06 |
| U26C G42A U51C | 0.15 |

| Variant | self-cleavage |
| --- | --- |
| U26C G33U U51G U72C | 0.12 |
| U26C U31A A77U | 0.13 |
| U26C C44A U49A | 0.14 |
| U26C C39A C59G U80G | 0.06 |
| U26C U41A A45G | 0.32 |
| U26C A57G A64G | 0.31 |
| U26C G33A U66C | 0.16 |
| U26C U31A U78G | 0.2 |
| U26C U31A U78C | 0.14 |
| U26C A56G U72C A77U | 0.75 |
| U26C U31A U72C | 0.22 |
| U26C A64U U76C | 0.2 |
| U26C G30A C32A A75G | 0.15 |
| U26C A64U U80A | 0.2 |
| U26C C38A A64U | 0.24 |
| U26C A57G A65U U80A | 0.6 |
| U26C U31C A45G U60A U67C | 0.16 |
| U26C C39U U51C U76C | 0.37 |
| U26C C68G U72C | 0.14 |
| U26C A47G U48C A56U U58C | 0.13 |
| U26C A56G U69A | 0.22 |
| U26C C29A U69A | 0.19 |
| U26C A47G U69A A75G | 0.11 |
